The source of these data is the antibiotic and cytotoxicity screens of Wong et al. (2023).

Some of the results follow.

The experiment deals with HSkMC (human skeletal muscle cells). The experiment can be described thus: cytotoxicity call (relative viability < 0.9). The following applies: 10 µM.
On to `Cc1noc(C)c1NC(=O)N(C)C[C@H]1Oc2ccc(NC(=O)Cn3cnnn3)cc2CC(=O)N([C@@H](C)CO)C[C@@H]1C`, for which the cytotoxicity call is “inactive”.
As to `C[C@H]1CN([C@@H](C)CO)C(=O)Cc2cc(NC(=O)Cn3cnnn3)ccc2O[C@H]1CN(C)S(=O)(=O)c1ccc(Cl)cc1`, the cytotoxicity call was “inactive”.
Turning to `COc1ccc(NC(=O)Nc2ccc3c(c2)C(=O)N([C@@H](C)CO)C[C@H](C)[C@@H](CN(C)Cc2ccncc2)OCCCC[C@@H](C)O3)cc1`, the cytotoxicity call was “inactive”.
The entry for `COC(=O)[C@H](Cc1ccccc1)N1CC2=C[C@@H](C3CC3)n3c(=O)n(C)c(=O)n3[C@H]2[C@@H]1[C@@H](O)Cc1ccccc1` is “inactive”.
For `CC=Cc1ccc2n(c1=O)C[C@H]1[C@H](CO)[C@@H](C(=O)NCC)[C@@H]2N1S(=O)(=O)c1cn(C)cn1`, the cytotoxicity call was “inactive”.
The entry for `COc1ccc(C#Cc2cnc3c(c2)C(=O)N([C@H](C)CO)C[C@H](C)[C@H](CN(C)C(=O)Nc2c(C)noc2C)O3)cc1OC` is “inactive”.
Consider `O=C(C[C@@H]1CC[C@H]2[C@@H](COC[C@H](O)CN2S(=O)(=O)c2cccc(F)c2)O1)NCc1ccncn1`, for which the cytotoxicity call was “inactive”.
Regarding `C1CN(C2CCOCC2)CCN1`, the cytotoxicity call is “inactive”.
For `C[C@@H]1CN([C@H](C)CO)C(=O)Cc2cc(NC(=O)Nc3ccc(C(F)(F)F)cc3)ccc2O[C@@H]1CN(C)C(=O)Nc1ccc(F)cc1`, the cytotoxicity call was “inactive”.
With `Cc1ccc(S(=O)(=O)N(C)C[C@@H]2Oc3ccc(NC(=O)CCN4CCOCC4)cc3CC(=O)N([C@H](C)CO)C[C@@H]2C)cc1`, the cytotoxicity call is “inactive”.
On to `Cc1cc(C(=O)Nc2cccc3c2O[C@H](CN(C)Cc2ccc4c(c2)OCO4)[C@H](C)CN([C@@H](C)CO)C3=O)n(C)n1`, for which the cytotoxicity call was “inactive”.
With `O=C(C[C@H]1CC[C@H]2[C@@H](COC[C@@H](O)CN2C(=O)Nc2ccc(Cl)cc2)O1)NCCc1ccncc1`, the cytotoxicity call is “inactive”.
Take `C[C@H](CO)N1C[C@H](C)[C@@H](CN(C)C(=O)Cc2ccccc2)OCCCC[C@H](C)Oc2ccc(NC(=O)C3CCCCC3)cc2C1=O`: the cytotoxicity call is “inactive”.
The entry for `COCC(=O)N1C[C@@H](C)[C@@H](OC)CN(C)C(=O)c2ccc(NC(=O)Nc3cccc(F)c3)cc2OC[C@@H]1C` is “inactive”; for `C[C@@H]1CN([C@@H](C)CO)C(=O)c2cc(NS(=O)(=O)c3cn(C)cn3)ccc2O[C@H]1CN(C)S(=O)(=O)c1ccc(F)cc1` it is “inactive”.
On to `CNC[C@H]1OCCCC[C@@H](C)Oc2ccc(NC(=O)Nc3cccc4ccccc34)cc2C(=O)N([C@@H](C)CO)C[C@H]1C`, for which the cytotoxicity call is “inactive”.
The value for `N[C@@H](CO)c1ccccc1` was “inactive”.
With `O=C(C[C@H]1C=C[C@H](NS(=O)(=O)c2ccccc2)[C@@H](CO)O1)NCc1ccncn1`, the cytotoxicity call is “inactive”.
`C[C@@H]1CCCCO[C@H](CN(C)Cc2ccc(C(=O)O)cc2)[C@@H](C)CN([C@H](C)CO)C(=O)c2cc(NC(=O)CCC(F)(F)F)ccc2O1`: the cytotoxicity call is “inactive”.
For `C[C@@H]1CCCCO[C@H](CN(C)C(=O)C2CCCCC2)[C@@H](C)CN([C@H](C)CO)C(=O)c2cc(NC(=O)Nc3ccccc3)ccc2O1`, the cytotoxicity call was “inactive”.
With `C[C@@H]1COC(=O)N1`, the cytotoxicity call was “inactive”.
Turning to `N[C@H](C(=O)O)[C@H](O)c1ccc(O)c(O)c1`, the cytotoxicity call was “inactive”.
The value for `CN(C)CC#Cc1cncc(C(=O)NN)c1` was “inactive”; that for `C[C@H](CO)N1C[C@H](C)[C@@H](CN(C)C(=O)Cc2ccccc2)OCCCC[C@H](C)Oc2ccc(NC(=O)CCC(F)(F)F)cc2C1=O` was “inactive”; that for `CCS(=O)(=O)N1CCCn2c(nc(Cn3cncn3)cc2=O)C1` was “inactive”.
The value for `C[C@@H]1CCCCO[C@@H](CN(C)C(=O)Nc2ccc(F)cc2)[C@H](C)CN([C@@H](C)CO)C(=O)c2cc(NC(=O)Nc3ccc(F)cc3)ccc2O1` was “inactive”; that for `CN1CCN(C(=O)[C@H]2[C@H](CO)[C@H]3Cn4c(ccc(-c5cncnc5)c4=O)[C@H]3N2CC2CC2)CC1` was “inactive”; that for `COc1ccc(CN(C)C[C@@H]2OCCCC[C@@H](C)Oc3ccc(NC(=O)Nc4cccc5ccccc45)cc3C(=O)N([C@H](C)CO)C[C@@H]2C)cc1` was “inactive”.
Regarding `CCCC(=O)N1CC[C@]2(CC1)CN([C@@H](CO)c1c2c2ccc(cc2n1C)OC)C(=O)CN1CCOCC1`, the cytotoxicity call was “inactive”.
For `COc1ccc(NC(=O)Nc2cccc3c2O[C@@H](CN(C)C(=O)Nc2cccc4ccccc24)[C@@H](C)CN([C@@H](C)CO)C3=O)cc1`, the cytotoxicity call was “inactive”.
The value for `O=C(N/N=C/[C@H](O)[C@@H](O)[C@@H](O)[C@H](O)C(=O)O)c1ccccn1` was “inactive”; that for `Cc1ccc(S(=O)(=O)Nc2ccc3c(c2)C(=O)N([C@H](C)CO)C[C@H](C)[C@@H](CN(C)C(=O)c2ccccc2)OCCCC[C@@H](C)O3)cc1` was “inactive”; that for `C[C@@H]1CCCCO[C@@H](CN(C)C(=O)C2CCCCC2)[C@H](C)CN([C@H](C)CO)C(=O)c2cc(NC(=O)Nc3ccccc3)ccc2O1` was “inactive”.
The entry for `C[C@@H]1CCCCO[C@@H](CN(C)S(=O)(=O)c2ccc(F)cc2)[C@@H](C)CN([C@H](C)CO)C(=O)c2cc(NS(C)(=O)=O)ccc2O1` is “inactive”; for `O=C1CC(c2ccc(O)cc2)Oc2cc(O)cc(O)c21` (stereo not given) it is “inactive”.
For the compound `O=C(O)COCC(=O)Nc1cnccn1`, the cytotoxicity call is “inactive”.
`COc1ccc(NC(=O)N(C)C[C@@H]2Oc3ccc(NC(=O)Nc4ccc(C(F)(F)F)cc4)cc3C(=O)N([C@@H](C)CO)C[C@H]2C)cc1`: the cytotoxicity call was “inactive”.
For `COc1ccccc1[C@@H](NC(=O)C1CCN(CCn2cnc3c2c(=O)n(C)c(=O)n3C)CC1)c1ccccn1`, the cytotoxicity call is “inactive”.
The entry for `C[C@H](CO)N1C[C@H](C)[C@H](CN(C)C(=O)Nc2ccc(F)cc2)Oc2ccc(NC(=O)CCN3CCOCC3)cc2C1=O` is “inactive”; for `COCC#Cc1ccc2c(c1)O[C@H](CN(C)Cc1ccc3c(c1)OCO3)[C@H](C)CN([C@H](C)CO)S2(=O)=O` it is “inactive”.
